From PubChem BioAssay AID504339 (National Center for Advancing Translational Sciences (NCATS), 2011)
The campaign covered roughly 390,000 compounds. About 17,000 (4.4%) were called active. Inconclusive results, whose numbers are uncertain, are shown with a selection of clear calls. Calls come from the whole dose curve; as a rule, active = well fitted inhibition curve with a large enough effect; inconclusive = small, poorly fitted or top-dose-only effect; inactive = no such curve, though single readings can be large or run the other way. Potencies of inconclusive entries are doubtful fits and often do not repeat.

These compounds were tested against Lysine-specific demethylase 4A (Homo sapiens) (UniProt O75164) (assay: qHTS Assay for Inhibitors of JMJD2A-Tudor Domain). Details: AlphaScreen JMJD2A-Tudor / H3K4me3 peptide binding; activity change, negative = inhibition: at 114 µM (top of the series).
% is set by controls: 0 for no effect and ±100 for the full control effect; potency is the fitted concentration of half-maximal effect; tags give direction and shape of the fitted curve.
Note: nearly all actives have a fitted effect of over 50% in size.

Sequence of UniProt O75164 (O75164 whole entry, looked up, the tested form may be a part): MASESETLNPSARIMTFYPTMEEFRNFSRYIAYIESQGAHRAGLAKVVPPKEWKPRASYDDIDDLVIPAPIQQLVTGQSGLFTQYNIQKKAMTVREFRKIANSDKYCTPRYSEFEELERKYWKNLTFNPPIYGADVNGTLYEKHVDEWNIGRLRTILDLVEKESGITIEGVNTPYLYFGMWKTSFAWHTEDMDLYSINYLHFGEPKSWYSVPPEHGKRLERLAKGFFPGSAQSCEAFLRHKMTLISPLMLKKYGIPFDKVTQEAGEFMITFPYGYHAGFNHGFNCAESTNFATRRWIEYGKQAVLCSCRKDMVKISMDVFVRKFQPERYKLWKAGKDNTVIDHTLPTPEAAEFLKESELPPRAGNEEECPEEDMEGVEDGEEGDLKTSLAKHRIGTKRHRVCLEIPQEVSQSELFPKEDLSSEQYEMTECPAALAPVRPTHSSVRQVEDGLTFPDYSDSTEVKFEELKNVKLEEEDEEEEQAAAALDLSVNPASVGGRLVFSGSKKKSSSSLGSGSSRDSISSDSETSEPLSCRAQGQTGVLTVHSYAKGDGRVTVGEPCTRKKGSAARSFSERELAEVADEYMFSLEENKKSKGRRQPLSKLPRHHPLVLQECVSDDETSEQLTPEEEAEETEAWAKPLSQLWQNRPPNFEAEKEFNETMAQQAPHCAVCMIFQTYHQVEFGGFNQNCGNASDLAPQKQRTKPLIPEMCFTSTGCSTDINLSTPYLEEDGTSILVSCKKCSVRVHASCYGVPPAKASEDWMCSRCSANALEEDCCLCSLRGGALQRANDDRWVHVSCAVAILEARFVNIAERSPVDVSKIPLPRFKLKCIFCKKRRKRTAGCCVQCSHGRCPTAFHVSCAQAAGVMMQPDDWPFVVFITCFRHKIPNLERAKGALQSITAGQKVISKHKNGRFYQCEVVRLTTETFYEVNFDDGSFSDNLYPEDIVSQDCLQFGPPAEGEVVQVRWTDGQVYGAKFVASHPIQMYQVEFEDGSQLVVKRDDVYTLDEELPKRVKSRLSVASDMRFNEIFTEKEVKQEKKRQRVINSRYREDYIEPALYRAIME

Activity change, negative = inhibition, inactive:
Nc1nc(-c2ccccc2)c(N=Nc2cccnc2)s1 -33%
CCOC(=O)C1(Cc2ccccc2)CCCN(Cc2ccccn2)C1 (stereo unspecified) -12.1%
Cc1ccc(-c2nnc(Nc3ccc(Cl)cc3)c3ccccc23)cc1S(=O)(=O)N1CCOCC1 -23.2%
COc1ccccc1NS(=O)(=O)c1cc(C(=O)Nc2ccc(S(=O)(=O)Nc3onc(C)c3C)cc2)ccc1C -30.6%
COc1ccc(NC(=O)c2cc3c([nH]c2=O)CC(c2ccccc2)CC3=O)cc1 (stereo unspecified) 12.6%
O=C(CNS(=O)(=O)c1cccs1)N1CCN(c2ccccn2)CC1 -20.5%
O=C(Cn1nnc(-c2ccccc2F)n1)N1CCCCC1 4.52%
COCCn1nnnc1C(c1ccc(C(F)(F)F)cc1)N1CCOCC1 (stereo unspecified) -12.2% [at 57.1 µM]
C(=C\c1ccco1)/C=N/n1cnnc1 -12.9%
O=C(c1ccc(-c2ccc(Cl)cc2)o1)N1CCN(c2ccc([N+](=O)[O-])cc2Cl)CC1 -33.3%
COC(=O)c1c(NC(=O)COC(=O)C2CCC2)sc(C)c1C 32.8%
CCN(C[C@H]1N[C@@](Cc2ccccc2)(C(=O)OC)[C@H]2C(=O)N(Cc3ccccc3)C(=O)[C@@H]12)C(=O)COC -22.3%

Potency, active:
COc1cc(-c2nc(-c3ccccc3)c(-c3cccs3)[nH]2)cc(OC)c1O 44.7 µM
CCC(=O)Nc1nnc(-c2ccccn2)o1 5.62 µM
CCc1nc(SCC(=O)NNC(=O)c2ccc(OC)cc2)c2ccccc2n1 50.1 µM
COC(=O)c1[nH]c(C)c(/C(O)=C2\C(=O)C(=O)N(CCN3CCOCC3)C2c2ccccc2OC)c1C (stereo unspecified) 50.1 µM
Cc1[nH]c2ccccc2c1Cc1n[nH]c(=S)n1C 6.31 µM
Cc1ccc(OCCCn2ccnc2)c(Br)c1 22.4 µM
O=C(CSc1ncn(-c2ccccc2)n1)Nc1nc2c(s1)CCCC2 50.1 µM
COc1ccc2c(c1)[nH]c1c(=O)n(/N=C/c3ccc(OC)c(COc4ccccn4)c3)cnc12 79.4 µM
N#Cc1c(NCCCO)nc(NCc2ccccc2)c2c1CCN(Cc1ccccc1)C2 56.2 µM
CC(=O)NC(c1cccs1)c1cc(F)c2cccnc2c1O (stereo unspecified) 79.4 µM

Potency, inactive:
Cc1c(NC(=O)c2cc(-c3cccc(Cl)c3)on2)c(=O)n(-c2ccccc2)n1C

Potency, inconclusive:
Cc1ccc(C(=O)NCC(=O)NCc2cc(=O)n(C)c(=O)n2C)cc1 25.1 µM [inhibitor, partial curve, poor fit]
O=C(NNc1c2ccccc2nc2ccccc12)C(O)c1ccccc1 (stereo unspecified) 56.2 µM [inhibitor, partial curve]
CCOC(=O)C(C(C)C)C(N)Cc1ccc(F)cc1 (stereo unspecified) 63.1 µM [inhibitor, single point]
CCc1nnc(NC(=O)c2ccc(F)c(S(=O)(=O)N3CCCCC3)c2)s1 56.2 µM [inhibitor, partial curve]
COC(=O)c1c(-c2c(Cl)cccc2Cl)noc1NC(=O)NN1CCCCC1 56.2 µM [inhibitor, partial curve]
O=C(Cn1cnc(S(=O)(=O)N2CCCC2)c1)Nc1ccccc1 39.8 µM [inhibitor, single point]
COc1ccc(CN(Cc2ccccc2)C(=O)Nc2ccccc2)cc1COc1ccc(NC(C)=O)cc1 56.2 µM [inhibitor, partial curve]
Cc1ccc(OCC(=O)Nc2cc(S(=O)(=O)N3CCCCC3)ccc2N2CCN(C)CC2)c(C)c1 31.6 µM [inhibitor, partial curve]
CCN(CC)CCNC(=O)c1ccccn1 79.4 µM [inhibitor, partial curve]
CCOC(=O)c1c(C)oc2c1c(CN1CCN(C(=O)OCC)CC1)c(O)c1ccccc12 44.7 µM [inhibitor, partial curve]
COc1ccc(NC(=O)c2ccc3c(c2)c(C)c(C)n3Cc2ccc(F)cc2)c(OC)c1 20 µM [inhibitor, full curve]
COc1cccc(C2c3c(ncn(-c4cccc(C)c4)c3=N)Oc3ccc4ccccc4c32)c1 (stereo unspecified) 28.2 µM [inhibitor, full curve]
CCc1nc(OCCN(CC)CC)c2oc3ccccc3c2n1 39.8 µM [inhibitor, full curve, poor fit]
Cc1cc(Nc2sc(C(=O)c3ccc(F)cc3)c(N)c2C(=O)Nc2ccc(F)cc2)ccc1Cl 44.7 µM [inhibitor, partial curve]
Cc1ccc(C(=O)NC2(C(F)(F)F)NC(=O)N(c3ccc(Cl)cc3)C2=O)cc1 (stereo unspecified) 35.5 µM [inhibitor, single point]
Cc1cccc(OCCN2C(=O)C(=O)c3cccc(C)c32)c1 28.2 µM [inhibitor, partial curve]
CCOC(=O)N1CCN(C(=O)c2ccc(CS(=O)(=O)c3ccc(OC)cc3)o2)CC1 20 µM [inhibitor, full curve, poor fit]
CCc1cc(=O)oc2cc(OCC(=O)NCc3ccccn3)ccc12 35.5 µM [inhibitor, single point]
COc1ccc(C(=O)NC(NC(=S)Nc2ccc(S(N)(=O)=O)cc2)C(Cl)(Cl)Cl)cc1 (stereo unspecified) 63.1 µM [inhibitor, partial curve, poor fit]
S=C(Nc1ccc(N2CCOCC2)cc1)Nc1ccc2nc(-c3ccco3)c(-c3ccco3)nc2c1 56.2 µM [inhibitor, partial curve]
Cc1ccc(-c2csc(NC(=O)CN3CCOCC3)n2)cc1 25.1 µM [inhibitor, partial curve]
CCn1ccnc1CNCc1ccc(OCC(O)CN(C)Cc2ccccc2)cc1 (stereo unspecified) 44.7 µM [inhibitor, partial curve]
CC1CCCCN1N=Nc1nc2c([nH]1)c(=O)n(C)c(=O)n2C (stereo unspecified) 12.6 µM [inhibitor, full curve]
